Measurements taken from patent US10299477B2 (priority 2015, dated 2019).

Assays:
Type in all cases: in vivo
[1] = system: Blumeria graminis f sp. hordei; test: Test Example D: Powdery mildew on barley; conditions: for Test D (control value class, powdery mildew on barley): in vivo; for Test D control value (powdery mildew on barley): preventive, control value class
Excerpt: [Test Example D] Powdery Mildew on Barley
After the sprayed dilutions were dried, conidia of Blumeria graminis f sp. hordei were inoculated to the plants by shaking off.

Plasmopara viticola = test: Test Example G: Downy mildew on vine; conditions: for Test G (control value class, downy mildew on vine): 250 ppm, sprayed 2.5 ml/pot before inoculation; for Test G control value: 250 ppm sprayed before inoculation; for Test G (control value class): 250 ppm spray; for Test G control value (downy mildew on vine): 250 ppm spray (2.5 ml/pot), preventive, control value class
Excerpt: [Test Example G] Downy Mildew on Vine
Seeds of a test plant (grape variety: Neomuscat) were planted followed by cultivating until three to four first leaves appeared. […] After the sprayed dilutions were dried, a zoosporangia suspension (1-2×10^4 zoosporangia/ml) of Plasmopara viticola was inoculated to the plants by spraying.

Botrytis cinerea = test: Test Example B: Gray mold on tomato; conditions: for Test B (control value class, gray mold on tomato): in vivo; for Test B control value (gray mold on tomato): preventive, control value class
Excerpt: [Test Example B] Gray Mold on Tomato
Seeds of a test plant (tomato variety: Oogata Fukuju) were planted followed by cultivating until three to five first leaves (true leaves) appeared.

Puccinia recondita = test: Test Example E: Brown rust on wheat; conditions: for Test E (control value class, brown rust on wheat): in vivo; for Test E control value (brown rust on wheat): preventive, control value class
Excerpt: [Test Example E] Brown Rust on Wheat

Alternaia brassicicola = test: Test Example C: Alternaria sooty spot on cabbage; conditions: for Test C (control value class, Alternaria sooty spot on cabbage): in vivo; for Test C control value / Test C (control value class): Alternaria sooty spot on cabbage; for Test C control value (Alternaria sooty spot on cabbage): preventive, control value class
Excerpt: [Test Example C] Alternaria Sooty Spot on Cabbage
Seeds of a test plant (cabbage variety: Shikidori) were planted followed by cultivating until the cotyledons extended.

[2] = evaluated 7-10 days after inoculation
[3] = Downy mildew on vine, 7-10 days after inoculation
[4] = powdery mildew on barley, 250 ppm spray
[5] = downy mildew on vine, Plasmopara viticola, 7-10 days after inoculation
[6] = gray mold on tomato, Botrytis cinerea, 250 ppm spray
[7] = brown rust on wheat, Puccinia recondita, 250 ppm spray
[8] = Powdery mildew on barley, control value=100{1-(n/3)}
[9] = Downy mildew on vine, 2.5 ml/pot, evaluated 7-10 days after inoculation
[10] = Gray mold on tomato, control value=100{1-(n/3)}
[11] = Brown rust on wheat, control value=100{1-(n/3)}

## Cn1c(-c2c(F)cc(F)cc2F)c(-c2cc(F)c(F)cc2F)ccc1=O [Compound 639]
[1]
  Test D (control value class, powdery mildew on barley): H (H shows more than 50% of control values)
Plasmopara viticola; [2]
  Test G (control value class, downy mildew on vine): H (H shows more than 50% of control values)
Botrytis cinerea
  Test B (control value class, gray mold on tomato): H (H shows more than 50% of control values)
Puccinia recondita
  Test E (control value class, brown rust on wheat): H (H shows more than 50% of control values)
Alternaia brassicicola
  Test C (control value class, Alternaria sooty spot on cabbage): H (H shows more than 50% of control values)

## CCn1c(-c2c(F)cccc2F)c(-c2ccccc2C)cc(Br)c1=O [Compound 162]
[1]; Powdery mildew on barley
  Test D control value: H (H shows more than 50% of control values)
Plasmopara viticola; [3]
  Test G control value: L (L shows 50% or less of control values)
Botrytis cinerea; Gray mold on tomato
  Test B control value: H (H shows more than 50% of control values)
Puccinia recondita; Brown rust on wheat
  Test E control value: L (L shows 50% or less of control values)
Alternaia brassicicola
  Test C control value: H (H shows more than 50% of control values)

## CCn1c(-c2c(F)cc(F)cc2F)c(-c2cccc(F)c2F)cc(C)c1=O [Compound 609]
[1]
  Test D (control value class, powdery mildew on barley): H (H shows more than 50% of control values)
Plasmopara viticola; [2]
  Test G (control value class, downy mildew on vine): L (L shows 50% or less of control values)
Botrytis cinerea
  Test B (control value class, gray mold on tomato): H (H shows more than 50% of control values)
Puccinia recondita
  Test E (control value class, brown rust on wheat): H (H shows more than 50% of control values)
Alternaia brassicicola
  Test C (control value class, Alternaria sooty spot on cabbage): H (H shows more than 50% of control values)

## CCCCn1c(-c2c(F)cccc2F)c(-c2cc(OC)ccc2Cl)cc(Br)c1=O [Compound 396]
[1]; [4]
  Test D (control value class): L (L shows 50% or less of control values)
Plasmopara viticola; [5]
  Test G (control value class): L (L shows 50% or less of control values)
Botrytis cinerea; [6]
  Test B (control value class): L (L shows 50% or less of control values)
Puccinia recondita; [7]
  Test E (control value class): L (L shows 50% or less of control values)
Alternaia brassicicola; 250 ppm spray
  Test C (control value class): L (L shows 50% or less of control values)

## CCn1c(-c2c(F)cc(OC)cc2F)c(-c2cc(F)ccc2F)ccc1=O [Compound 468]
[1]; [4]
  Test D (control value class): H (H shows more than 50% of control values)
Plasmopara viticola; [5]
  Test G (control value class): H (H shows more than 50% of control values)
Botrytis cinerea; [6]
  Test B (control value class): H (H shows more than 50% of control values)
Puccinia recondita; [7]
  Test E (control value class): H (H shows more than 50% of control values)
Alternaia brassicicola; 250 ppm spray
  Test C (control value class): H (H shows more than 50% of control values)

## CCn1c(-c2c(F)cc(F)cc2F)c(-c2ccccc2F)cc(C)c1=O [Compound 542]
[1]; [4]
  Test D (control value class): H (H shows more than 50% of control values)
Plasmopara viticola; [5]
  Test G (control value class): H (H shows more than 50% of control values)
Botrytis cinerea; [6]
  Test B (control value class): H (H shows more than 50% of control values)
Puccinia recondita; [7]
  Test E (control value class): H (H shows more than 50% of control values)
Alternaia brassicicola; 250 ppm spray
  Test C (control value class): H (H shows more than 50% of control values)

## Cn1c(-c2c(F)cc(F)cc2F)c(-c2cc(F)cc(F)c2Br)cc(Cl)c1=O [Compound 816]
[1]; [8]
  Test D (control value class): H (H shows more than 50% of control values)
Plasmopara viticola; [9]
  Test G (control value class): L (L shows 50% or less of control values)
Botrytis cinerea; [10]
  Test B (control value class): H (H shows more than 50% of control values)
Puccinia recondita; [11]
  Test E (control value class): H (H shows more than 50% of control values)
Alternaia brassicicola; control value=100{1-(n/3)}
  Test C (control value class): H (H shows more than 50% of control values)

## CCN1C(=O)CCC(c2cc(OC)cc(OC)c2)=C1c1c(F)cccc1Br [Compound 174]
[1]; Powdery mildew on barley
  Test D control value: L (L shows 50% or less of control values)
Plasmopara viticola; [3]
  Test G control value: H (H shows more than 50% of control values)
Botrytis cinerea; Gray mold on tomato
  Test B control value: H (H shows more than 50% of control values)
Puccinia recondita; Brown rust on wheat
  Test E control value: H (H shows more than 50% of control values)
Alternaia brassicicola
  Test C control value: H (H shows more than 50% of control values)

## CCn1c(-c2c(F)cccc2F)c(-c2cc(OCC(F)(F)F)ccc2Cl)ccc1=O [Compound 262]
[1]; 250 ppm spray
  Test D control value (powdery mildew on barley): H (H shows more than 50% of control values)
Plasmopara viticola; 7-10 days after inoculation
  Test G control value (downy mildew on vine): H (H shows more than 50% of control values)
Botrytis cinerea; 250 ppm spray
  Test B control value (gray mold on tomato): H (H shows more than 50% of control values)
Puccinia recondita; 250 ppm spray
  Test E control value (brown rust on wheat): H (H shows more than 50% of control values)
Alternaia brassicicola; 250 ppm spray
  Test C control value (Alternaria sooty spot on cabbage): H (H shows more than 50% of control values)

## CCn1c(-c2c(F)cc(F)cc2F)c(-c2cc(F)c(F)cc2F)cc(Cl)c1=O [Compound 636]
[1]
  Test D (control value class, powdery mildew on barley): L (L shows 50% or less of control values)
Plasmopara viticola; [2]
  Test G (control value class, downy mildew on vine): L (L shows 50% or less of control values)
Botrytis cinerea
  Test B (control value class, gray mold on tomato): H (H shows more than 50% of control values)
Puccinia recondita
  Test E (control value class, brown rust on wheat): H (H shows more than 50% of control values)
Alternaia brassicicola
  Test C (control value class, Alternaria sooty spot on cabbage): H (H shows more than 50% of control values)

## Cn1c(-c2c(F)cccc2F)c(-c2ccccc2C(F)(F)F)cc(Br)c1=O [Compound 159]
[1]; Powdery mildew on barley
  Test D control value: L (L shows 50% or less of control values)
Plasmopara viticola; [3]
  Test G control value: L (L shows 50% or less of control values)
Botrytis cinerea; Gray mold on tomato
  Test B control value: L (L shows 50% or less of control values)
Puccinia recondita; Brown rust on wheat
  Test E control value: H (H shows more than 50% of control values)
Alternaia brassicicola
  Test C control value: L (L shows 50% or less of control values)

## CCn1c(-c2c(F)cc(F)cc2F)c(-c2cc(O)ccc2Cl)cc(Cl)c1=O [Compound 792]
[1]; [8]
  Test D (control value class): L (L shows 50% or less of control values)
Plasmopara viticola; [9]
  Test G (control value class): H (H shows more than 50% of control values)
Botrytis cinerea; [10]
  Test B (control value class): H (H shows more than 50% of control values)
Puccinia recondita; [11]
  Test E (control value class): H (H shows more than 50% of control values)
Alternaia brassicicola; control value=100{1-(n/3)}
  Test C (control value class): H (H shows more than 50% of control values)

## CCn1c(-c2c(F)cccc2F)c(-c2ccc(F)cc2F)cc(Cl)c1=O [Compound 630]
[1]
  Test D (control value class, powdery mildew on barley): H (H shows more than 50% of control values)
Plasmopara viticola; [2]
  Test G (control value class, downy mildew on vine): H (H shows more than 50% of control values)
Botrytis cinerea
  Test B (control value class, gray mold on tomato): H (H shows more than 50% of control values)
Puccinia recondita
  Test E (control value class, brown rust on wheat): H (H shows more than 50% of control values)
Alternaia brassicicola
  Test C (control value class, Alternaria sooty spot on cabbage): H (H shows more than 50% of control values)

## CCN1C(=O)CCC(c2ccc(F)cc2Cl)=C1c1c(F)cc(F)cc1F [Compound 573]
[1]
  Test D (control value class, powdery mildew on barley): H (H shows more than 50% of control values)
Plasmopara viticola; [2]
  Test G (control value class, downy mildew on vine): L (L shows 50% or less of control values)
Botrytis cinerea
  Test B (control value class, gray mold on tomato): H (H shows more than 50% of control values)
Puccinia recondita
  Test E (control value class, brown rust on wheat): H (H shows more than 50% of control values)
Alternaia brassicicola
  Test C (control value class, Alternaria sooty spot on cabbage): H (H shows more than 50% of control values)

## COc1cc(OC)c(Cl)c(-c2ccc(=O)n(CC(F)F)c2-c2c(F)cccc2F)c1 [Compound 337]
[1]; 250 ppm spray
  Test D control value (powdery mildew on barley): H (H shows more than 50% of control values)
Plasmopara viticola; 7-10 days after inoculation
  Test G control value (downy mildew on vine): H (H shows more than 50% of control values)
Botrytis cinerea; 250 ppm spray
  Test B control value (gray mold on tomato): H (H shows more than 50% of control values)
Puccinia recondita; 250 ppm spray
  Test E control value (brown rust on wheat): H (H shows more than 50% of control values)
Alternaia brassicicola; 250 ppm spray
  Test C control value (Alternaria sooty spot on cabbage): H (H shows more than 50% of control values)

## CCn1c(-c2c(F)cccc2F)c(-c2cc(OC)cc(OC)c2Cl)ccc1=O [Compound 728]
[1]
  Test D (control value class, powdery mildew on barley): H (H shows more than 50% of control values)
Plasmopara viticola; [2]
  Test G (control value class, downy mildew on vine): H (H shows more than 50% of control values)
Botrytis cinerea
  Test B (control value class, gray mold on tomato): H (H shows more than 50% of control values)
Puccinia recondita
  Test E (control value class, brown rust on wheat): H (H shows more than 50% of control values)
Alternaia brassicicola
  Test C (control value class, Alternaria sooty spot on cabbage): H (H shows more than 50% of control values)

## COc1cccc(-c2cc(Cl)c(=O)n(C)c2-c2c(F)cc(F)cc2F)c1Cl [Compound 787]
[1]; [8]
  Test D (control value class): L (L shows 50% or less of control values)
Plasmopara viticola; [9]
  Test G (control value class): L (L shows 50% or less of control values)
Botrytis cinerea; [10]
  Test B (control value class): H (H shows more than 50% of control values)
Puccinia recondita; [11]
  Test E (control value class): H (H shows more than 50% of control values)
Alternaia brassicicola; control value=100{1-(n/3)}
  Test C (control value class): H (H shows more than 50% of control values)

## CCn1c(-c2c(F)cccc2F)c(-c2ccccc2SC)ccc1=O [Compound 209]
[1]; 250 ppm spray
  Test D control value (powdery mildew on barley): H (H shows more than 50% of control values)
Plasmopara viticola; 7-10 days after inoculation
  Test G control value (downy mildew on vine): H (H shows more than 50% of control values)
Botrytis cinerea; 250 ppm spray
  Test B control value (gray mold on tomato): H (H shows more than 50% of control values)
Puccinia recondita; 250 ppm spray
  Test E control value (brown rust on wheat): H (H shows more than 50% of control values)
Alternaia brassicicola; 250 ppm spray
  Test C control value (Alternaria sooty spot on cabbage): H (H shows more than 50% of control values)

## CCn1c(-c2c(F)cc(F)cc2F)c(-c2cc(F)cc(F)c2Cl)ccc1=O [Compound 584]
[1]
  Test D (control value class, powdery mildew on barley): H (H shows more than 50% of control values)
Plasmopara viticola; [2]
  Test G (control value class, downy mildew on vine): H (H shows more than 50% of control values)
Botrytis cinerea
  Test B (control value class, gray mold on tomato): H (H shows more than 50% of control values)
Puccinia recondita
  Test E (control value class, brown rust on wheat): H (H shows more than 50% of control values)
Alternaia brassicicola
  Test C (control value class, Alternaria sooty spot on cabbage): H (H shows more than 50% of control values)
